Measured values taken from article PMC2833206.
Where two headings read alike, the source gives them in different places. These are yes or no findings as the source states them, for the method shown. For some assays here: Binding seen in cells or lysates may run through a third protein. Some results given as binding are weak or reduced against the parent protein; the word gives no strength. For some assays here: Where a sequence is shown, tags or fusion partners need not be part of it. Blank lines part the entries; values can stand above or below the molecule they belong to.

Sequences of proteins named here, by UniProt entry; tags and fusion partners are left off. A change or cut given only in a name is not applied to a line headed by its entry. Residues count along the entry.
UniProt Q96B97: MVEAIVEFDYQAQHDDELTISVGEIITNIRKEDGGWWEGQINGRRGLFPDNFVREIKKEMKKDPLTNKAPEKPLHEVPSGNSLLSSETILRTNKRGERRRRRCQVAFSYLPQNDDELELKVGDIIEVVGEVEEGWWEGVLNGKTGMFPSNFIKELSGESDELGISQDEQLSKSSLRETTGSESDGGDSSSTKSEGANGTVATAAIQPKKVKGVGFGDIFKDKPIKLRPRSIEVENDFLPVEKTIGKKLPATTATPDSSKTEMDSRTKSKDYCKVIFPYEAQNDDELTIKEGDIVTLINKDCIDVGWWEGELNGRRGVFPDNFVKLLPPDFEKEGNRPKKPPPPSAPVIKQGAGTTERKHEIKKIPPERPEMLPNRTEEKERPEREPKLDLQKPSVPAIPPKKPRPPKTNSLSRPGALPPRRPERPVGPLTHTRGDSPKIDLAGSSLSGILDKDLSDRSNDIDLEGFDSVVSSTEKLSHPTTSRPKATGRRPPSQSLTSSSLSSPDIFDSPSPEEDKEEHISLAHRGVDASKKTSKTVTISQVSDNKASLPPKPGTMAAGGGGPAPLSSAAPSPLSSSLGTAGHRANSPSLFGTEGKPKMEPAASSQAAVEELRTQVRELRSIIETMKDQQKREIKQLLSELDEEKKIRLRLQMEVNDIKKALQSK
CIN85 4-450 two-hybrid prey: residues 4-450 of Q96B97
CIN85 4-264 two-hybrid prey: residues 4-264 of Q96B97
PABPC1 1-246 two-hybrid prey (P11940, residues 1-246): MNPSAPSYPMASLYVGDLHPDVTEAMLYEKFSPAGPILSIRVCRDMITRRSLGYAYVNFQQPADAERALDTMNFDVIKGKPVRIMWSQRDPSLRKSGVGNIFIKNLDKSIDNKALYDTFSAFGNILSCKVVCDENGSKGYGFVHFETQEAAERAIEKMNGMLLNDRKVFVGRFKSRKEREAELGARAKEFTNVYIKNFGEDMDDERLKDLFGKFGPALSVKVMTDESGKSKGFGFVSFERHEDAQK
PABPC1 79-400 two-hybrid prey (P11940, residues 79-400): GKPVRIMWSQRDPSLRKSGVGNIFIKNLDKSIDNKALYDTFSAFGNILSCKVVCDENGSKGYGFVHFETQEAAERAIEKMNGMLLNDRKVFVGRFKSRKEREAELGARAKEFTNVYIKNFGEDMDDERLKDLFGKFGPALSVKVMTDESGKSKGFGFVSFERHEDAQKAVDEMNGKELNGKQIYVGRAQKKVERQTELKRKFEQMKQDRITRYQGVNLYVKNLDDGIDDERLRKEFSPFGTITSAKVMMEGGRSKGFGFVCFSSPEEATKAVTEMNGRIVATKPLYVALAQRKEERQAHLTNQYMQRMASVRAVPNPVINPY
PABPC1 95-408 two-hybrid prey (P11940, residues 95-408): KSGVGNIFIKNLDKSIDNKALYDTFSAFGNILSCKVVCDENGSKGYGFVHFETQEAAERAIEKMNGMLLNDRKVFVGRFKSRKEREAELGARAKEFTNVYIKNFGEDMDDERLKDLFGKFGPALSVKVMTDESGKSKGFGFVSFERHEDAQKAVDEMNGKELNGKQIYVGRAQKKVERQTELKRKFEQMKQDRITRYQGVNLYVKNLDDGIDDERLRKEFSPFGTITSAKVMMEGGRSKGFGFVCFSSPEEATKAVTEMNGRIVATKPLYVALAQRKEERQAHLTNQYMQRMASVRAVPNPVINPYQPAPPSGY
PABPC1 99-422 two-hybrid prey (P11940, residues 99-422): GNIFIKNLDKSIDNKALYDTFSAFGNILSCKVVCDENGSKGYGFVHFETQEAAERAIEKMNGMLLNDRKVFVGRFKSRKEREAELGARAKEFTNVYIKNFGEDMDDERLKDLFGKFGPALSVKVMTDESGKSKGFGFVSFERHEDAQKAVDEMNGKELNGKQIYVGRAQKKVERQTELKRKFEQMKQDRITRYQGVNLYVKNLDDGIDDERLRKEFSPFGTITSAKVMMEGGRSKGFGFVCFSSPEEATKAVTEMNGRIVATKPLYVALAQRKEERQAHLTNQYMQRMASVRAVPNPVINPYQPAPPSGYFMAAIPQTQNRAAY
PABPC1 100-309 two-hybrid prey (P11940, residues 100-309): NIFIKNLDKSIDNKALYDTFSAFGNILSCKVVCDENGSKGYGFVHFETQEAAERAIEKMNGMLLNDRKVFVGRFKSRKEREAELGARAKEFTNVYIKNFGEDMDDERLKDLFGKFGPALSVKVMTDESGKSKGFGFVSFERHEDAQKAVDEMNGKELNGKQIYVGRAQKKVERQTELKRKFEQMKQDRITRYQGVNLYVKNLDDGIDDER
PABPC1 178-466 two-hybrid prey (P11940, residues 178-466): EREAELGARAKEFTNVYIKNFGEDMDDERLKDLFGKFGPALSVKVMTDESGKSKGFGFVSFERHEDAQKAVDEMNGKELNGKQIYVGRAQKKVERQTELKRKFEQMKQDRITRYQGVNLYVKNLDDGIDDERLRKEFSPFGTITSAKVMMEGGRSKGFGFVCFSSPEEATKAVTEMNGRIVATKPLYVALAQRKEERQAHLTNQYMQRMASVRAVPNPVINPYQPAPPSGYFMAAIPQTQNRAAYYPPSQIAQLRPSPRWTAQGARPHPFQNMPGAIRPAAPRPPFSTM
PABPC1 187-482 two-hybrid prey (P11940, residues 187-482): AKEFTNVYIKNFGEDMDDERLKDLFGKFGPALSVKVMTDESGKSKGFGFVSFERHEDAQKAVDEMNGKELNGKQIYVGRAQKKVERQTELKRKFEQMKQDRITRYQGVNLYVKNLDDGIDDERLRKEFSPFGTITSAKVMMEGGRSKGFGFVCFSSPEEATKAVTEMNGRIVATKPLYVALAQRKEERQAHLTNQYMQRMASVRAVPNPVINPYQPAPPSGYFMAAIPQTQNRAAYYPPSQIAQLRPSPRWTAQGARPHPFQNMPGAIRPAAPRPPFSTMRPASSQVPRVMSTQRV
PABPC1 236-399 two-hybrid prey (P11940, residues 236-399): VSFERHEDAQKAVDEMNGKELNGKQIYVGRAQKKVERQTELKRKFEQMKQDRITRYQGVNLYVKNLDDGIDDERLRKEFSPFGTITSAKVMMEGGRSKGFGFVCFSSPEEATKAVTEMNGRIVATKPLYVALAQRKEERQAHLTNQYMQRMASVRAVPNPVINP
UniProt P19338, residues 375-692: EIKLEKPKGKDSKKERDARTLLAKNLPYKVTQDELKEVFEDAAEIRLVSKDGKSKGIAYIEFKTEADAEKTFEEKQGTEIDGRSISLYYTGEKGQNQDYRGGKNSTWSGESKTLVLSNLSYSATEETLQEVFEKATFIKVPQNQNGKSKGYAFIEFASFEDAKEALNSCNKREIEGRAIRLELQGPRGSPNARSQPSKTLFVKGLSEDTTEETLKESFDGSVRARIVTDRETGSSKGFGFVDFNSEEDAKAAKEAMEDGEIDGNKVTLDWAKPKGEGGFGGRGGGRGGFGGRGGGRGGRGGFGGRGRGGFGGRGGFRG

Assays:
[1] = target: T1, hTTP 150-326 two-hybrid bait (human) (UniProt P26651); test: two-hybrid; automated ProNet screen (Myriad Genetics); hTTP fragments fused to the Gal4 DNA binding domain as baits, mated with Gal4 activation domain libraries (human spleen, brain, mixed breast/prostate cancer cell lines); selection on -Trp -Leu -His -Ade; confirmed by liquid beta-galactosidase assays; some screens with ARE RNA expressed
T1 sequence: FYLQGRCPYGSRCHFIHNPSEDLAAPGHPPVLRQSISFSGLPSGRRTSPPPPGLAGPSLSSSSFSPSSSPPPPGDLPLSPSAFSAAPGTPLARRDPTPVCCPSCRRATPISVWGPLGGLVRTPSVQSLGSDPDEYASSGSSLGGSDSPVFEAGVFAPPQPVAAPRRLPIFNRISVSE

[2] = target: T2, hTTP 223-326 two-hybrid bait (human) (UniProt P26651); test: as above
T2 sequence: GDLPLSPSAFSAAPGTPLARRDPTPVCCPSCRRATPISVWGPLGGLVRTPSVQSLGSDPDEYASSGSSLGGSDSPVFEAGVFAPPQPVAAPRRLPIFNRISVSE

[3] = target: Flag-tagged human CIN85 (Flag-CIN85), full length (human) (UniProt Q96B97); test: co-IP; HEK 293 cells transfected with HA- and Flag-tagged constructs (or endogenous partner); 1 mg protein of RIPA extract, treated with RNase; anti-FLAG or anti-HA monoclonal antibody overnight at 4 °C, protein A Sepharose; western blot
[4] = target: Flag-tagged human tristetraprolin (Flag-hTTP) (human) (UniProt P26651); test: as above
[5] = target: hTTP 90-180 two-hybrid bait (human) (UniProt P26651); test: two-hybrid; automated ProNet screen (Myriad Genetics); hTTP fragments fused to the Gal4 DNA binding domain as baits, mated with Gal4 activation domain libraries (human spleen, brain, mixed breast/prostate cancer cell lines); selection on -Trp -Leu -His -Ade; confirmed by liquid beta-galactosidase assays; some screens with ARE RNA expressed
[6] = target: Flag-tagged human CIN85 (Flag-CIN85), full length (human) (UniProt Q96B97); test: co-IP; HEK 293 cells transfected with HA- and Flag-tagged constructs (or endogenous partner); 1 mg protein of RIPA extract, treated with RNase; anti-FLAG or anti-HA monoclonal antibody overnight at 4 °C, protein A Sepharose; western blot; remark: listed apart in the source
[7] = target: Flag-tagged human tristetraprolin (Flag-hTTP) (human) (UniProt P26651); test: as above; remark: listed apart in the source
[8] = target: HA-tagged human CIN85 (HA-CIN85), full length (human) (UniProt Q96B97); test: as above

Molecule: HA-hTTP 1-313 (from UniProt P26651 1-313) (domain or fragment)
binding [3]: no binding

Molecule: HA-hTTP 1-322 (from UniProt P26651 1-322) (domain or fragment)
binding [3]: binds

Molecule: PABPC1 1-246 two-hybrid prey (from UniProt P11940-1 1-246) (domain or fragment)
binding [5]: binds

Molecule: PABPC1 95-408 two-hybrid prey (from UniProt P11940-1 95-408) (domain or fragment)
binding [5]: binds

Molecule: PABPC1 99-422 two-hybrid prey (from UniProt P11940-1 99-422) (domain or fragment)
binding [5]: binds

Molecule: PABPC1 100-309 two-hybrid prey (from UniProt P11940-1 100-309) (domain or fragment)
binding [5]: binds

B1: human ZFP36L2 (hZFP36L2), full length, epitope-tagged (protein, UniProt P47974 1-494)
chain: MSTTLLSAFYDVDFLCKTEKSLANLNLNNMLDKKAVGTPVAAAPSSGFAPGFLRRHSASNLHALAHPAPSPGSCSPKFPGAANGSSCGSAAAGGPTSYGTLKEPSGGGGTALLNKENKFRDRSFSENGDRSQHLLHLQQQQKGGGGSQINSTRYKTELCRPFEESGTCKYGEKCQFAHGFHELRSLTRHPKYKTELCRTFHTIGFCPYGPRCHFIHNADERRPAPSGGASGDLRAFGTRDALHLGFPREPRPKLHHSLSFSGFPSGHHQPPGGLESPLLLDSPTSRTPPPPSCSSASSCSSSASSCSSASAASTPSGAPTCCASAAAAAAAALLYGTGGAEDLLAPGAPCAACSSASCANNAFAFGPELSSLITPLAIQTHNFAAVAAAAYYRSQQQQQQQGLAPPAQPPAPPSATLPAGAAAPPSPPFSFQLPRRLSDSPVFDAPPSPPDSLSDRDSYLSGSLSSGSLSGSESPSLDPGRRLPIFSRLSISDD
binding [6]: no binding

B2: HA-tagged human MARCKS (HA-MARCKS) (protein, UniProt P29966 1-332)
chain: MGAQFSKTAAKGEAAAERPGEAAVASSPSKANGQENGHVKVNGDASPAAAESGAKEELQANGSAPAADKEEPAAAGSGAASPSAAEKGEPAAAAAPEAGASPVEKEAPAEGEAAEPGSPTAAEGEAASAASSTSSPKAEDGATPSPSNETPKKKKKRFSFKKSFKLSGFSFKKNKKEAGEGGEAEAPAAEGGKDEAAGGAAAAAAEAGAASGEQAAAPGEEAAAGEEGAAGGDPQEAKPQEAAVAPEKPPASDETKAAEEPSKVEEKKAEEAGASAAACEAPSAAGPGAPPEQEAAPAEEPAAAAASSACAAPSQEAQPECSPEAPPAEAAE
binding [7]: no binding

Now from value to molecule:

binding [1]: binds | binding [2]: binds
Molecule: CIN85 4-264 two-hybrid prey (from UniProt Q96B97-1 4-264) (domain or fragment)

binding [1]: binds | binding [2]: binds
Molecule: CIN85 4-450 two-hybrid prey (from UniProt Q96B97-1 4-450) (domain or fragment)

binding [3]: no binding
Molecule: HA-hTTP 1-290 (from UniProt P26651 1-290) (domain or fragment)

binding [3]: binds
Molecule: HA-hTTP 1-319 (from UniProt P26651 1-319) (domain or fragment)

binding [4]: binds | binding [3]: binds
Molecule: HA-tagged mitogen-activated protein kinase kinase kinase 4 (HA-MEKK4) (from UniProt Q9Y6R4-1 1-1608) (enzyme)

binding [5]: binds
Molecule: Nucleolin 375-692 two-hybrid prey (from UniProt P19338 375-692) (domain or fragment)

binding [5]: binds
Molecule: PABPC1 79-400 two-hybrid prey (from UniProt P11940-1 79-400) (domain or fragment)

binding [5]: binds
Molecule: PABPC1 178-466 two-hybrid prey (from UniProt P11940-1 178-466) (domain or fragment)

binding [5]: binds
Molecule: PABPC1 187-482 two-hybrid prey (from UniProt P11940-1 187-482) (domain or fragment)

binding [5]: binds
Molecule: PABPC1 236-399 two-hybrid prey (from UniProt P11940-1 236-399) (domain or fragment)

binding [8]: no binding
B3: Flag-tagged mouse ZFP36L3 (pFlag-muL3), full length (protein, UniProt Q5ISE2 1-725)
chain: MANNNLNRPLNTNVADSSNSSSTPGTAPPPSSSDPQVLGHQAPSSSASSLTEDCSSSFARDLNSYNNGQSGATGAVSWEAPHEPSEANAVSQIHPRNGEHSLQQKPKPQKVSGSSSLATSERYKTELCRPFEESGICKYGHKCQFAHGYRELRTLSRHPKYKTEPCRTFHSVGFCPYGTRCHFIHNQPEQQPVLSESTLEEPSSFNGSNVLHLGVNGEQQPGLQSDSPSGFLSVNSQALQAPLQLNQQALSSGGVMPSSHPAAANLRMMCCRTSSSTTAHDADKDPDKDADKDPSNNSANDALAFPQEPGDFSPVAFQNPNTATTTPTAFYNNQQQMGLAASAQFQMPLARPLPSATIFGQASVGPALTPGAAMAPGAALAPAAALTPAAALAPGAAMALGAAMATGAAMATGAALTPGAALALGAAMAAGAALAPGAAMAPGAAMATGAALAFGAAMATGTTLTPGAAMALGAAMATGAALAPGAAVAPRAALAPRAAFAPGAAALAPRAALPPGAALTPGAALAPGAALAPRAALPPGATLRPGAALIPRAALAPGAALAPGAALTPGAALAPGATLAPRAALAPGAALAPRITITSRAAITPGVAIAPGVATASTGILAPGAATATVGNTSSTTITAATAAEGAAPHFTFQLPDVESESESESLEFDVVTSTLDSLLVSDDEDEDDFLRRSSSSSSLNESEFDNTNSSRRLPIFSRFSDSEK

binding [6]: no binding
B4: human ZFP36L1 (hZFP36L1), full length, epitope-tagged (protein, UniProt Q07352 1-338)
chain: MTTTLVSATIFDLSEVLCKGNKMLNYSAPSAGGCLLDRKAVGTPAGGGFPRRHSVTLPSSKFHQNQLLSSLKGEPAPALSSRDSRFRDRSFSEGGERLLPTQKQPGGGQVNSSRYKTELCRPFEENGACKYGDKCQFAHGIHELRSLTRHPKYKTELCRTFHTIGFCPYGPRCHFIHNAEERRALAGARDLSADRPRLQHSFSFAGFPSAAATAAATGLLDSPTSITPPPILSADDLLGSPTLPDGTNNPFAFSSQELASLFAPSMGLPGGGSPTTFLFRPMSESPHMFDSPPSPQDSLSDQEGYLSSSSSSHSGSDSPTLDNSRRLPIFSRLSISDD
